Screen size: about 48,000 compounds; about 450 (0.94%) were called active. Inconclusive results (about 19%) are left out. Calls follow the shape of the dose curve; as a rule, active = well fitted inhibition curve with a large enough effect; inconclusive = small, poorly fitted or top-dose-only effect; inactive = no such curve, though single readings can be large or run the other way. Some of the results follow.

The nature of this experiment: Primary qHTS for Identification of Small Molecule Inhibitors of Huntingtin Promoter Activity. Also: nearly all actives have a fitted effect of over 50% in size. Particulars: HEK293 HTT promoter firefly luciferase reporter (activity 0% = vehicle and -100% = no light), 24 h; series mostly up to 57.5 µM; activity change, negative = inhibition: at the top concentration. The procedure, abridged: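 Luminescence was read after Dual-Glo reagent and a 10 min room-temperature incubation. Values were normalized to vehicle (0% activity) and zero RLU (-100% activity). Reporter HEK293 cells had been exposed to compounds (up to 57.5 uM final) for 24 h.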
With `CCC(C)NC(=O)c1cc2n(n1)CCCN(Cc1ccc(C)cc1)C2=O` (configuration not stated), the “activity change, negative = inhibition” value was inactive: -25.4%. The figure for `Cc1ccc(N2CCN(C(=O)c3cccn4c(=O)c5ccc(Cl)cc5nc34)CC2C)cc1` (configuration not stated) is inactive: 15%.

With `COc1ccc(C(CNC(=O)c2oc3cc(C)c(C)cc3c2C)N2CCCCC2)cc1` (configuration not stated), the “activity change, negative = inhibition” value was inactive: -4.77%. The figure for `CCn1cc(C(=O)N2CCN(c3ccccc3)CC2)c(=O)c2cc(S(=O)(=O)N(C)C)ccc21` is inactive: -5.65% [at 11.5 µM]; for `Cc1c2cnn(CC(=O)NCc3ccc(Cl)cc3)c(=O)c2c(C)n1Cc1ccc(F)cc1` it is inactive: -18.3%; for `O=C(Cc1ccc(F)cc1)NCCc1csc2nc(-c3ccccc3F)nn12` it is inactive: -0.797%. The figure for `COc1ccc(CCNS(=O)(=O)c2c(C)nc3sccn3c2=O)cc1OC` is inactive: -1.42%. On to `Cc1cc(NS(=O)(=O)c2ccc(NC(=O)COc3ccccc3Br)cc2)no1`, for which the “activity change, negative = inhibition” value was inactive: -17.5%. The figure for `Cc1ccccc1Nc1nn2c(=O)c3ccc(C(=O)NCc4cccs4)cc3nc2s1` is inactive: -32.2%. For the compound `CC(=O)Nc1ccc(C)cc1-c1nc2ccccc2n(CC(=O)c2ccc(C)c(C)c2)c1=O`, the “activity change, negative = inhibition” value is inactive: -6.95%. `COc1ccc(S(=O)(=O)n2nc(C)c(S(=O)(=O)N3CCCCCC3)c2C)cc1C`: the “activity change, negative = inhibition” value is inactive: -4.28%. The figure for `O=C(NCCc1csc(-c2ccc(C(F)(F)F)cc2)n1)C(=O)Nc1ccc(F)c(Cl)c1` is inactive: 1.54%; for `CCOc1ccccc1NS(=O)(=O)c1ccc(N2CCCCS2(=O)=O)cc1` it is inactive: -19.6%. The figure for `CCOC(=O)c1c(N)n(-c2ccc(CC)cc2)c2nc3ccccc3nc12` is inactive: -14.9%; for `Cc1ccc(C)c(NC(=O)Cn2c(SCC(=O)NCc3ccccc3)nc3ccccc32)c1` it is inactive: -18.1%. With `O=C(CN1C(=O)CSc2ccc(S(=O)(=O)N3CCOCC3)cc21)NCCCN1CCCCC1`, the “activity change, negative = inhibition” value is inactive: -6.29%. The figure for `Cc1ccc(N(CC(=O)N2CCN(c3ccccc3)CC2)S(=O)(=O)c2c(C)noc2C)cc1` is inactive: 7.69%.

On to `CC(C)CCCC(C)CCCC(C)CCCCC(C)CCCC(C)CCCC(C)C` (configuration not stated), for which the “activity change, negative = inhibition” value was inactive: -1.64%.

Turning to `CC(=O)N1CCOc2cc(S(=O)(=O)NCc3ccccc3Cl)c(Cl)cc21`, the “activity change, negative = inhibition” value was inactive: -10.5%. The figure for `CCc1ccc(NC(=O)Cn2c(=O)n(-c3ccccc3C)c(=O)c3c2c2cc(OC)ccc2n3C)cc1` is inactive: -25.8%. `CCOC(=O)c1ccccc1NC(=O)N1CCC(CN2CCOCC2)CC1`: the “activity change, negative = inhibition” value is inactive: -23.6%. Consider `CCN1CCN(C(c2ccccc2Cl)c2sc3nc(-c4ccco4)nn3c2O)CC1` (configuration not stated), for which the “activity change, negative = inhibition” value is inactive: 0%. The figure for `CCOc1ccc(NC(=O)Cn2nc3c(cc2=O)CC(C)CC3)cc1` (configuration not stated) is inactive: 1.27%; for `Cc1ccc(-c2noc(-c3nnn(CC(=O)Nc4ccc(C)c(Cl)c4)c3N)n2)cc1` it is inactive: 3.5%. As to `CC(C)Oc1ccc(C(=O)NCC(c2ccc(N(C)C)cc2)N2CCc3ccccc32)cc1` (configuration not stated), the “activity change, negative = inhibition” value was inactive: -11.6%. With `CCOc1ccc(N(CC(=O)Nc2ccc(OC)cc2)S(=O)(=O)c2ccc(Cl)cc2)cc1`, the “activity change, negative = inhibition” value was inactive: 1.5%. For the compound `Cc1ccc2c(C)c(C(=O)N(Cc3ccc(N(C)C)cc3)Cc3ccco3)oc2c1C`, the “activity change, negative = inhibition” value was inactive: -18.9%. The figure for `O=C(CCSCCc1ccccn1)Nc1ccc(Cl)cc1` is inactive: -15.5%. The figure for `CCn1c(=O)c2sccc2n2c(CCC(=O)Nc3ccc(F)cc3)nnc12` is inactive: -7.97%; for `CCN(c1ccccc1)S(=O)(=O)c1nnc(NC(=O)C2CCCCC2)s1` it is inactive: -1.84%.

Consider `COc1ccc2c(c1)c(N1CCCC1=O)c(C(=O)Nc1cc(C)c(Cl)cc1OC)n2C`, for which the “activity change, negative = inhibition” value was inactive: -19.3%. The figure for `Cc1ccc2c(c1)cc1c(=O)n(Cc3ccccc3Cl)nc(C)n12` is inactive: -7.73%. Consider `Oc1c(C(c2ccccc2)N2CCCC2)sc2nc(-c3ccco3)nn12` (configuration not stated), for which the “activity change, negative = inhibition” value is inactive: -1.54%.

Regarding `CCOC(=O)Cc1ccc(NC(=O)NC(C)c2c(-n3cccc3)sc(C)c2C)cc1` (configuration not stated), the “activity change, negative = inhibition” value is inactive: -24.1%.

As for `Cc1cc2oc(=O)c(CC(=O)O)c(C)c2c2occ(-c3ccccc3)c12`, the “activity change, negative = inhibition” value was inactive: 61.1%.

Regarding `COc1cc(-n2c(=O)c3ccccc3n(Cc3cccc(Cl)c3)c2=O)cc(OC)c1OC`, the “activity change, negative = inhibition” value was inactive: -26.2%. Consider `CCOC(=O)c1c(C)[nH]c(CCC(=O)NCc2cc(OC)c(OC)c(OC)c2)c1C`, for which the “activity change, negative = inhibition” value is inactive: 2.43%. Regarding `CCNC(=O)CC1C(=O)N(c2ccc(C)cc2)C(=O)N1CCOC` (configuration not stated), the “activity change, negative = inhibition” value is inactive: -9.37%.

With `COc1ccc(CNC(=O)CN2C(=O)CCn3nc(-c4cn(C)c5ccccc45)cc32)cc1`, the “activity change, negative = inhibition” value was inactive: 5.38%. The figure for `O=C(c1cccc([N+](=O)[O-])c1)N1CCN(c2ccc(Nc3ccccc3)nn2)CC1` is inactive: -23.9%; for `CC[N+](CC)(CC)CCOC(=O)C(C1CCCC1)C1CCCC1` it is inactive: -3.64%.

Turning to `CCn1nc(C)c2c(-c3ccccc3)cc(=O)n(C(C)C(=O)NCCc3ccc(Cl)cc3)c21` (configuration not stated), the “activity change, negative = inhibition” value is inactive: -19.9%. On to `CCOc1ccc(NC(=O)CCCn2c(C)c3cnn(-c4ccccc4)c(=O)c3c2C)cc1`, for which the “activity change, negative = inhibition” value is inactive: -15.3%. The figure for `CCOc1cccc(CNCCCSc2nnnn2C)c1` is inactive: -15%; for `COc1ccc(OC)c(NC(=O)CSC2=Nc3ccccc3C3=NC(CC(=O)NCCc4ccccc4)C(=O)N23)c1` (configuration not stated) it is inactive: 0%. The figure for `COc1cc(OC)c(NC(=O)Cn2ncn3c(cc4cc(C)ccc43)c2=O)cc1Cl` is inactive: 2.52%; for `Cc1cccc(NC(=O)CSC2=Nc3ccccc3C3=NC(CCC(=O)NCc4ccco4)C(=O)N23)c1` (configuration not stated) it is inactive: -6.23%.
